± gives the standard deviation of the averaged measurements. Whole data set: some 33,000 sequences, median “E-score (dimensionless, -0.5 to 0.5)” near -0.049, cut for the highest 2% near 0.37. The list shows a part of the results.

In the test the test system is T1, PmTbr T-box DNA-binding domain (GST fusion).
T1 sequence: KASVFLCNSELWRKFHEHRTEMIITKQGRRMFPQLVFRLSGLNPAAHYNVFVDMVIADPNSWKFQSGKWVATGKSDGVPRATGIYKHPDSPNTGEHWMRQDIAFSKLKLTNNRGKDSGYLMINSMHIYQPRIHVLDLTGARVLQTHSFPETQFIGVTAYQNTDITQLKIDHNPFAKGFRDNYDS
The test is described as follows: PBM E-score of 8-mer (E-score (dimensionless, -0.5 to 0.5)); Tbr is Tbrain of the sea star Patiria miniata (Pm) or the sea urchin Strongylocentrotus purpuratus (Sp); higher = stronger binding preference; most listed sequences are background and not binding sites. Conditions: the construct has about 5 more residues each side. In a few lines: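 Using the Universal PBM Analysis Suite, every ungapped 8-mer received an enrichment E-score averaged over duplicate arrays. Probe intensities came from double-stranded Universal Agilent oligonucleotide arrays incubated with 200 nM GST-fused Tbr T-box DNA-binding domain in PBS (pH 7.5). That protein was expressed in BL21 E. coli at 20 °C and purified by glutathione affinity chromatography.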
On to GGATTGAC, for which the “PBM E-score of 8-mer” value is 0.0766 ± 0.0056. With ATACCGGC the figure was -0.253 ± 0.04. For CTGTTTAA the value was 0.00696 ± 0.072; for AATCGCAA, 0.251 ± 0.028; for AGTACGGG, -0.248 ± 0.013.

Consider TAAGCTAA, for which the “PBM E-score of 8-mer” value is -0.272 ± 0.033.

For the sequence CCTTCGTA, the “PBM E-score of 8-mer” value came out at 0.139 ± 0.025. With CTTTCGGC the figure was 0.0207 ± 0.014; with CACATCTG, 0.283 ± 0.0036; with GTCGCCAC, 0.326 ± 0.0074. For AAGTAAAC the value was 0.0187 ± 0.034; for ATGGATAC, -0.4 ± 0.038; for AAACAAAG, 0.105 ± 0.095.

TCTGGTAA: the “PBM E-score of 8-mer” value was -0.00932 ± 0.047.

For AGGCACCG, the “PBM E-score of 8-mer” value was -0.025 ± 0.035. With GAGAGGCA the figure was -0.202 ± 0.058.

In the case of CCACACCA, the “PBM E-score of 8-mer” value was found to be 0.29 ± 0.033. With CGATAGTC the figure was 0.0501 ± 0.037; with CGTGGCAA, 0.122 ± 0.044.

With TCATTTAA, the “PBM E-score of 8-mer” value was -0.282 ± 0.061.

Regarding GTACCGAC, the “PBM E-score of 8-mer” value was -0.0485 ± 0.12. For AGAACTCT the value was -0.211 ± 0.067. For ACGAGTGC the value was 0.191 ± 0.044; for ACTAAACC, -0.0721 ± 0.022; for TATAACGA, -0.13 ± 0.019. As for ATCGGCTA, the “PBM E-score of 8-mer” value is -0.0955 ± 0.062. With CCCACCTA the figure was 0.184 ± 0.016; with CCGTTGAA, -0.251 ± 0.11; with CAGAATCC, -0.115 ± 0.042. For CATATAGC, the “PBM E-score of 8-mer” value was -0.188 ± 0.077.

Consider ATGGTTAC, for which the “PBM E-score of 8-mer” value is -0.265 ± 0.029. With CGCCACCA the figure was 0.269 ± 0.004.

For GCGTAACC, the “PBM E-score of 8-mer” value is -0.00498 ± 0.032. Turning to ACAGTAAA, the “PBM E-score of 8-mer” value is -0.2762 ± 0.0019. For AAGGGCAG the value was -0.149 ± 0.0087; for CGACTTAC, -0.00392 ± 0.086. With GGATTGGA the figure was -0.185 ± 0.014; with GAGTGACC, -0.0846 ± 0.0063. Regarding GGCAATTA, the “PBM E-score of 8-mer” value is 0.111 ± 0.051. Consider CTGCAGGA, for which the “PBM E-score of 8-mer” value is -0.155 ± 0.032. As to CATACACG, the “PBM E-score of 8-mer” value is -0.121 ± 0.1. Turning to GTAAGCGA, the “PBM E-score of 8-mer” value came to 0.0395 ± 0.019. With CCATAAAC the figure was -0.115 ± 0.089. For CGAGCTCA, the “PBM E-score of 8-mer” value was -0.0103 ± 0.029.

For CAGGTAAG, the “PBM E-score of 8-mer” value was 0.0622 ± 0.0032. As to AGGCGGTA, the “PBM E-score of 8-mer” value came out at 0.0799 ± 0.026. Take AATAGCGT: the “PBM E-score of 8-mer” value was determined as 0.104 ± 0.015.

Take TCCGAGAA: the “PBM E-score of 8-mer” value was 0.0357 ± 0.047.

Take GAATGACA: the “PBM E-score of 8-mer” value came out at 0.196 ± 0.027. For GGTCCCAC, the “PBM E-score of 8-mer” value is 0.252 ± 0.042. GGGTGGCA: the “PBM E-score of 8-mer” value worked out at 0.322 ± 0.024. For CGACCCGA, the “PBM E-score of 8-mer” value is -0.114 ± 0.032. With AAGAATGT, the “PBM E-score of 8-mer” value is -0.0657 ± 0.011. For CCAGGCGG the value was -0.022 ± 0.0044; for AGACGCGC, 0.0897 ± 0.037.

Take AGGTCGAA: the “PBM E-score of 8-mer” value is -0.0933 ± 0.056. With CAGCGAAA the figure was 0.0314 ± 0.045; with ATTAAGGC, -0.0488 ± 0.00077. As for CACTTTAC, the “PBM E-score of 8-mer” value is 0.274 ± 0.067. Regarding CTAATCAA, the “PBM E-score of 8-mer” value was -0.0277 ± 0.017.

As to CGTCTAAC, the “PBM E-score of 8-mer” value was -0.0253 ± 0.036. AGGACGCC: the “PBM E-score of 8-mer” value was -0.181 ± 0.04. As for ATGGGGTG, the “PBM E-score of 8-mer” value is 0.239 ± 0.043. Take GGTTACGA: the “PBM E-score of 8-mer” value is -0.0977 ± 0.019. On to GTGGCCTA, for which the “PBM E-score of 8-mer” value was -0.13 ± 0.028. For CCCTTTCA the value was -0.107 ± 0.025; for CTCTTCCA, -0.318 ± 0.01; for ACATTATA, 0.0324 ± 0.028. As for GCTAATAC, the “PBM E-score of 8-mer” value turned out to be 0.00914 ± 0.044. With CACGGGGA the figure was -0.163 ± 0.026; with ATTACAAG, -0.0219 ± 0.11.

Take ATGAATCA: the “PBM E-score of 8-mer” value was -0.129 ± 0.0053. With GACAAGTC, the “PBM E-score of 8-mer” value turned out to be 0.198 ± 0.024. For TTGATAAA the value was -0.0386 ± 0.1; for ATAACGGG, 0.109 ± 0.011.

Turning to CCGTATCA, the “PBM E-score of 8-mer” value was -0.114 ± 0.048. For GGGGCAAA the value was -0.0367 ± 0.074. For GCCGAAGA, the “PBM E-score of 8-mer” value was -0.194 ± 0.017. On to ACTGCAAC, for which the “PBM E-score of 8-mer” value was -0.0288 ± 0.014. For GCCTAGCA, the “PBM E-score of 8-mer” value is -0.00521 ± 0.096. On to AAATGCCT, for which the “PBM E-score of 8-mer” value was -0.0834 ± 0.0012. For GACATGTA the value was 0.108 ± 0.023; for CATCTAAA, -0.151 ± 0.083.

AATATCCT: the “PBM E-score of 8-mer” value is -0.296 ± 0.02. Regarding ATCCGGTC, the “PBM E-score of 8-mer” value was -0.099 ± 0.056. GTCCATAA: the “PBM E-score of 8-mer” value is -0.285 ± 0.024. With CCGGTCAG the figure was -0.188 ± 0.096; with ACTAGGTG, 0.425 ± 0.012; with AGCGCCCA, 0.1023 ± 0.00096. For GAAGTGAA the value was 0.219 ± 0.011. Regarding GTCCGCTA, the “PBM E-score of 8-mer” value came to 0.0554 ± 0.075. On to ATTAGGTA, for which the “PBM E-score of 8-mer” value is -0.131 ± 0.0089. With GCGCCGCA the figure was 0.209 ± 0.0044. For the sequence ATCTTACC, the “PBM E-score of 8-mer” value is -0.327 ± 0.021. For GCATAGGA the value was -0.313 ± 0.025; for ATCTCCCA, -0.115 ± 0.057; for GCGCATAA, -0.0553 ± 0.0062. With CAGAGTAC the figure was -0.15 ± 0.026. With ACGTCTTA the figure was 0.0321 ± 0.018; with AGAATCTG, -0.0493 ± 0.0097. Turning to GCTAAAAA, the “PBM E-score of 8-mer” value was determined as 0.169 ± 0.18. For CACGCATA the value was 0.126 ± 0.0089; for CCGCGGCC, -0.24 ± 0.01; for CGCTGCCG, 0.0947 ± 0.04. With TAACTAAA the figure was -0.0805 ± 0.0067; with GACGGGCC, -0.175 ± 0.03.

With TGCCTAAA, the “PBM E-score of 8-mer” value turned out to be 0.0625 ± 0.03.

Consider CAACGCTG, for which the “PBM E-score of 8-mer” value was 0.117 ± 0.063.

As for AGCGTTTA, the “PBM E-score of 8-mer” value was -0.0653 ± 0.017. With AGTGCTCC the figure was -0.152 ± 0.1.

The record behind these values is the supplement of paper PMC4166925.
